This passage reports viability, T/C results from PubChem BioAssay AID1918941 (Molecular Pharmacology Branch, DTP, NCI, 2023).

In this assay the test system is SW 1271 complex spheroids, viability. Description: Anticancer human tumor SW 1271 cell line growth inhibition [LSD1].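 Further: spheroids exposed to agents for 7 days before luminescence read; 100% = DMSO vehicle control viability.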 As to conditions: stronger effect = lower value. From the text: Multicellular complex tumor spheroid response to LSD1 Inhibitor Iadademstat in combination with a variety of drugs and investigational agents in selected tumor cell lines
The current study was undertaken to assess response to LSD1 inhibitors in combination with standard-of-care drugs and investigational agents in solid tumor complex spheroid models as well as in the K-562 leukemia. Complex spheroids include a stromal component modeled by human endothelial cells (HUVEC) and fibroblasts modeled by human mesenchymal stem cells (MSCs). The concentration ranges selected for each drug and investigational agent were based upon clinically achievable concentrations if the clinical Cmax of the agent was known.
Compounds. The drugs and investigational agents used in this study are listed on Table 1. All of the agents used, including staurosporine (NSC755774) and gemcitabine (NSC613327), were obtained from the Developmental Therapeutics Program, NCI. FDA-approved anticancer drugs are available from the NCI at http://dtp.nci.nih.gov/branches/dscb/oncology_drugset_explanation.html. Drugs and investigational agents were >95% pure by proton nuclear magnetic resonance (NMR) and liquid chromatography/mass spectrometry (LC/MS). Stock solutions were prepared at 400x in DMSO, stored at -70 degrees C, and diluted in fresh medium prior to their use. The final concentration of DMSO in cell culture wells never exceeded 0.25% (v/v). The FDA-approved anticancer drug set is available from the Developmental Therapeutics Program at https://dtp.cancer.gov/organization/dscb/obtaining/available_plates.htm. All drugs and investigational agents were tested over a range starting from a high concentration at or near the clinical Cmax and decreasing in half-log increments. If the clinical Cmax for an agent had not been determined, the highest concentration tested was 10 microM.
Cell Lines. The patient-derived cancer cell (PDC) lines: 292921-168-R-J2-PDC, K24384-001-R-PDC, and 521955-158-R2-J5-PDC pancreatic carcinomas, 556581-035-R-J1 ovarian carcinoma, 324938-238-R-J1-PDC, 855422-203-R-J1-PDC and 883617-216-R-J1-PDC urothelial bladder carcinomas, 743489-274-T-PDC renal cell carcinoma, 138582-R-J1 Merkel cell tumor, K60290-347-R-J1 and K57222-313-R-J1-PDC glioblastomas, 653999-131-R-J2-PDC, LG0703-F948-PDC, and 349418-098-R-PDC non-small cell lung carcinomas, 885512-296-R-J2-PDC, 171881-019-R-J1-PDC breast carcinomas and 186277-243-T-J2-PDC and 233499-124-R-J2-PDC colon carcinomas were obtained from the NCI Patient-Derived Models Repository (PDMR, https://pdmr.cancer.gov). The established cell lines NCI/ADR-RES (RRID:CVCL_14520 and OVCAR-5 (RRID:CVCL_1628) ovarian carcinomas, 786-O (RRID:CVCL_1051) and A498 (RRID:CVCL_A498) renal cell carcinoma, NCI-H211 (ATCC, cat. CRL-5824; RRID:CVCL_1529), NCI-H196 (ATCC, cat. CRL-5823, RRID:CVCL_1509), SW 1271 (ATCC, cat. CRL-2177, RRID:CVCL_1716) and NCI-H1876 (ATCC, cat. CRL-5902, RRID:CVCL_1503) small cell lung carcinomas, MDA-MB-231 (RRID:CVCL_0062) and MDA-MB-468 (RRID:CVCL_0419)breast carcinomas (10-12). Pooled donor human umbilical vein endothelial cells (HUVEC, Lonza, cat. CC-2519) and human mesenchymal stem cells (hMSC, Lonza, cat. PT-2501) were purchased from Lonza (Walkersville, MD).
Cell Culture. All cells were maintained in an incubator at 37 degrees C and 5% CO2 with 95% humidity. The PDC lines were cultured according to standard operating procedures established by the NCI PDMR (https://pdmr.cancer.gov). Briefly all PDCs were thawed and cultured in Matrigel-coated flasks prepared with a working solution of 1X Ham's F-12 nutrient mix, without supplementation (Invitrogen, Waltham, MA, cat. 11765054), 100 U/mL penicillin-streptomycin (Invitrogen, cat. 15140122), and 2.5% Matrigel (Corning Inc., Corning, NY, cat. 354248) for the first three passages. […]

Not every entry of the source has a single result; some have several. They are shown here; other results are not. There may be further records. The records of an entry are repeated measurements across runs, samples, wells, individuals or studies. Marks such as (2×) stand for listed records that agree.

For `NC1CC1c1ccc(-c2cccc(O)c2)cc1` (stereo not drawn), the viability, T/C reads like this: (compound alone 0.316 µM) 82.1, 83.4, 83.1, 89.5, 87.7, 83, 95.8, 77.3 (3×), 82.5, 79.5, 77.5, 83.7, 80.8, 90.5, 62.5, 86.6, 75.6, 71.2, 67.1, 78.8, 79.6, 81.5, 73.3%; (compound alone 1 µM) 86.6 (2×), 74.3, 83.7, 75.8, 73.6, 79, 86.2, 70.8, 72.6, 75.4, 81.4, 79.6, 73.4, 74.6, 78.8, 73, 88.5, 61, 92.4, 76.3, 88.4, 89.4, 68.4%; (compound alone 3.16 µM) 76.7, 91.9, 72.6, 76.6, 67.4, 74, 82.2, 80.9, 77.7, 80.5, 62.7, 79.9, 80.7, 72.5, 73.6, 75.7, 68.3, 75.6, 81.5, 69.2, 94.3, 82.3, 74.2, 82, 70.6%.

For `NC1CCC(NC2CC2c2ccccc2)CC1` (stereo not drawn), the viability, T/C is 90.3, 86.8, 98, 93.3, 96.6, 112, 99.4, 76.7, 75.9, 79.9, 115, 72.2, 83.5 (2×), 107, 89.3, 83.1, 77.8, 96.3, 93, 108, 101 (2×), 91, 79.7% (compound alone 0.1 µM); 78.9, 93.4, 88, 87 (2×), 93.5 (2×), 106, 105, 86, 79.8, 72.9, 94.9, 87.1, 104, 93.9, 92.6, 82.3, 86.3, 91.3, 88.7, 84.6, 100, 83.4, 71.5% (compound alone 1 µM); 77.3, 84.9, 92, 75.9, 91.9, 98.5, 98.9, 83.7, 87.3, 104, 97, 81.5, 99.7, 109, 95.5, 87.9, 101, 88.5, 90.8, 84, 90.1, 77.2, 91.3, 86.5, 77.9% (compound alone 3.16 µM); 78, 83.1, 101 (2×), 70.2, 85.1, 91.5, 88.9, 99.4, 81.4, 103 (2×), 102, 94.9, 95.9, 83.4, 79.6, 81.1, 92.9, 84.3, 78.1, 81.3, 71.3% (compound alone 10 µM).

As to `O=C(C=Cc1cccc(S(=O)(=O)Nc2ccccc2)c1)NO`, where the note is “compound alone 3 µM”, the viability, T/C was 115% and 0.28%.
